The text below walks through data of PubChem BioAssay AID1745853 (National Center for Advancing Translational Sciences (NCATS), 2022).

What all share (assay): Primary Screen for Target Class Profiling of Small Molecule Inhibitors of Methyltransferases
Assay [1] has as its target Glycine N-methyltransferase (Homo sapiens) (UniProt Q14749). The settings on record: purified enzyme, MTase-Glo SAH luminescence; measured here: GNMT inhibition; at 40 µM; stronger effect = lower value. In a few lines: (§1)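 Each enzyme was assayed with SAM and its substrate. SAH formation detected by MTase-Glo luminescence; single-point 40 uM screen[…].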
Assay [2] has as its target Guanidinoacetate N-methyltransferase (Homo sapiens) (UniProt Q14353). As to conditions: purified enzyme, MTase-Glo SAH luminescence; measured here: GAMT inhibition; at 40 µM; stronger effect = lower value. In a few lines: as §1
Assay [3] concerns the target Histamine N-methyltransferase (Homo sapiens) (UniProt P50135). As to conditions: purified enzyme, MTase-Glo SAH luminescence; measured here: HNMT inhibition; at 40 µM; stronger effect = lower value. In a few lines:
as §1

Assay [4] concerns the target Nicotinamide N-methyltransferase (Homo sapiens) (UniProt P40261). The settings on record: purified enzyme, MTase-Glo SAH luminescence; measured here: NNMT inhibition; at 40 µM; stronger effect = lower value. An outline of the steps: as §1
In assay [5] the target is Phenylethanolamine N-methyltransferase (Homo sapiens) (UniProt P11086). The settings on record: purified enzyme, MTase-Glo SAH luminescence; measured here: PNMT inhibition; at 40 µM; stronger effect = lower value. An outline of the steps:
as §1

This is one part of the list. These are further read-outs of the screen, such as a control signal, another cell line or another target. No call is given for them.
% is set by controls: 0 for no effect and ±100 for the full control effect.

For the compound `CC1=C2[C@@H]([C@H](C)CC[C@H]2/C=C(\C)C(=O)O)[C@H](O)C1`, the activity change, negative = inhibition in assay [1] is -3.74%; in assay [2], -4.83%; in assay [3], -0.751%; in assay [4] it was -16.3%; in assay [5], 0.587%.

As for `O=S(=O)(NCc1cccc2ccccc12)c1cc(Cl)c(Oc2cccc(N3CCNCC3)c2)s1`, the activity change, negative = inhibition is -0.706% in assay [1]; -13.1% in assay [2]; -4.08% in assay [3]; -18.8% in assay [4]; -5.05% in assay [5].

`CC1=C2CC3C(CCC3(C)O)C(C)(O)CC2OC1=O` (stereo not given): the activity change, negative = inhibition in assay [1] was -0.44%; in assay [2], -1.09%; in assay [3], 5.86%; in assay [4] it was -11.4%; in assay [5], -4.18%.

For the compound `Cc1ccc(-n2ccnc2-c2cc3n(n2)CCNC3)cc1N1CCCC1=O`, the activity change, negative = inhibition in assay [1] is -1.06%; in assay [2], 0.504%; in assay [3], -2.25%; in assay [4] it was -1.25%; in assay [5] it was 1.21%.

For `O=c1c2ccccc2n2c(-c3ccccc3O)nnc2n1Cc1ccc(F)cc1`, the activity change, negative = inhibition was -0.539% in assay [1]; 0% in assay [2]; 8.55% in assay [3]; 4.71% in assay [4]; 1.84% in assay [5].

Consider `O=c1[nH]c2cc(Br)c(S(=O)(=O)NCCN3CCN(c4ccccc4F)CC3)cc2[nH]1`, for which the activity change, negative = inhibition in assay [1] was 0.561%; in assay [2], 0%; in assay [3], -1.95%; in assay [4] it was -5.87%; in assay [5], -3.45%.

In the case of `Cc1ccccc1NC(=O)Cn1nc2n(C(C)C)c(=O)c3ccc(C(=O)NCC(C)C)cc3n2c1=O`, the activity change, negative = inhibition in assay [1] was determined as 7.78%; in assay [2], 0.094%; in assay [3], 11.1%; in assay [4], 6.7%; in assay [5], 8.03%.

`Fc1ccc(-c2cc(C3CCNCC3)[nH]n2)cc1`: the activity change, negative = inhibition in assay [1] was -9.61%; in assay [2] it was -8.29%; in assay [3], -8.99%; in assay [4], -12.5%; in assay [5], -15%.

Consider `C[C@@H](NC(=O)c1cc(C(=O)N[C@@H](Cc2ccccc2)[C@H](O)CNC2CC2)cc(N(C)S(C)(=O)=O)c1)c1ccccc1`, for which the activity change, negative = inhibition is -0.862% in assay [1]; -1.8% in assay [2]; -2.89% in assay [3]; -11.2% in assay [4]; -7.2% in assay [5].

On to `CCCCN1C(=O)c2cc(C(=O)Nc3ccc(C)c(C)c3)nn2CC1(C)C(=O)NC1CCCC1` (stereo not given), for which the activity change, negative = inhibition was 3.15% in assay [1]; 0% in assay [2]; -24.7% in assay [3]; 1.86% in assay [4]; 2.63% in assay [5].

As for `CC(C(=O)NCc1ccccc1Cl)n1ccc2cc(S(=O)(=O)N3CCCCC3)ccc21` (stereo not given), the activity change, negative = inhibition in assay [1] was -0.022%; in assay [2], 5.17%; in assay [3], 4.62%; in assay [4], -2.5%; in assay [5] it was 1.42%.

Regarding `CCc1cccc(NC(=O)c2cc3n(n2)CC(C)(C(=O)NC2CCCCCC2)N(C)C3=O)c1` (stereo not given), the activity change, negative = inhibition in assay [1] is 0.171%; in assay [2], 2.28%; in assay [3] it was -0.205%; in assay [4], -0.463%; in assay [5], -0.774%.

Turning to `Cc1nnc2n1CCC(N(C)S(=O)(=O)c1cccnc1)CC2` (stereo not given), the activity change, negative = inhibition was -0.098% in assay [1]; 0.301% in assay [2]; -0.06% in assay [3]; 3.25% in assay [4]; 6.03% in assay [5].

For `CC(C)CNC(=O)c1ccc2c(=O)n(CC(C)C)c3nn(CC(=O)Nc4ccccc4F)c(=O)n3c2c1`, the activity change, negative = inhibition was -0.635% in assay [1]; 0% in assay [2]; 2.9% in assay [3]; -5.01% in assay [4]; -0.247% in assay [5].

Take `Nc1[nH]nc2nnc(-c3c(-c4ccccc4)nn4ccccc34)cc12`: the activity change, negative = inhibition in assay [1] is -92.1%; in assay [2], -84.2%; in assay [3] it was -92.3%; in assay [4] it was -89.3%; in assay [5], -91%.

Turning to `CC(C)c1cc(C(=O)NCc2cccnc2Oc2cccc(C(F)(F)F)c2)n[nH]1`, the activity change, negative = inhibition is -5.23% in assay [1]; 1.88% in assay [2]; -4.24% in assay [3]; -3.4% in assay [4]; 3.44% in assay [5].

For `Nc1nc2c(c(=O)[nH]1)CCN(C(=O)Cc1c[nH]c3ccccc13)C2`, the activity change, negative = inhibition in assay [1] was -4.89%; in assay [2], -6.36%; in assay [3] it was -1.81%; in assay [4], -9.49%; in assay [5] it was -5.7%.

On to `CCN1C(=O)c2cc(C(=O)NCCc3ccc(Cl)cc3)nn2CC1(C)C(=O)NC1CCCC1` (stereo not given), for which the activity change, negative = inhibition was -0.134% in assay [1]; 3% in assay [2]; 0.742% in assay [3]; -0.375% in assay [4]; -1.4% in assay [5].

Take `COc1ccc(CN2C(=O)c3cc4occc4n3CC2(C)C(=O)NC2CCCCC2C)cc1` (stereo not given): the activity change, negative = inhibition in assay [1] was 1.99%; in assay [2] it was 0%; in assay [3], 5.82%; in assay [4], -7.9%; in assay [5] it was 0.22%.

Consider `Cc1cc(C)cc(NS(=O)(=O)c2ccc3[nH]c(=O)[nH]c3c2)c1`, for which the activity change, negative = inhibition in assay [1] was -4.84%; in assay [2] it was 0%; in assay [3], 4.12%; in assay [4], 4.47%; in assay [5], -12.5%.

On to `Cc1nc2c3ccccc3n3c(CCCC(=O)N4CCN(c5cccc(C)c5C)CC4)nnc3n2n1`, for which the activity change, negative = inhibition in assay [1] is -9.33%; in assay [2] it was 4.99%; in assay [3], 4.96%; in assay [4] it was 8.04%; in assay [5], 2.23%.

As to `CC(C)n1cnnc1C1CCCN1C(=O)Nc1ccccc1` (stereo not given), the activity change, negative = inhibition in assay [1] is -5.04%; in assay [2], -10.7%; in assay [3], -4.63%; in assay [4] it was -9.17%; in assay [5], -5.9%.

On to `CCC1c2cccn2-c2sc3c(c2CN1C(=O)Nc1cc(OC)ccc1OC)CCCC3` (stereo not given), for which the activity change, negative = inhibition in assay [1] was -2.98%; in assay [2], 4.72%; in assay [3] it was 6.68%; in assay [4], -3.59%; in assay [5], 2.82%.

In the case of `CC1(C(=O)NC2CCCC2)Cn2c(nc3ccccc32)C(=O)N1Cc1cccc(Br)c1` (stereo not given), the activity change, negative = inhibition in assay [1] was -6.88%; in assay [2], -2.48%; in assay [3] it was -0.563%; in assay [4], -11.3%; in assay [5], -6.23%.

In the case of `CC1(C(=O)NC2CCCC2)Cn2c(ccc2-c2ccccc2)C(=O)N1Cc1cccs1` (stereo not given), the activity change, negative = inhibition in assay [1] is -0.74%; in assay [2] it was 5.94%; in assay [3] it was -5.62%; in assay [4], -8.43%; in assay [5], -5.36%.

For `O=C(c1ccc2c(c1)OCCO2)N1CCCCC1`, the activity change, negative = inhibition in assay [1] was -9.36%; in assay [2], 1.39%; in assay [3], -2.48%; in assay [4], -13%; in assay [5], 0.185%.

With `COc1ccccc1CNC(=O)C1(C)Cn2nc(-c3ccccc3)cc2C(=O)N1c1ccc(C)cc1Cl` (stereo not given), the activity change, negative = inhibition was 3.37% in assay [1]; 3.5% in assay [2]; 9.34% in assay [3]; 1.07% in assay [4]; -0.052% in assay [5].

Take `CN1C(=O)c2cc(C(=O)N3CCOCC3)nn2CC1(C)C(=O)NCc1ccccc1` (stereo not given): the activity change, negative = inhibition is 4.09% in assay [1]; 0% in assay [2]; 2.89% in assay [3]; 9.44% in assay [4]; 5.22% in assay [5].

Turning to `Cn1nc(C2CC2)cc1NC(=O)C1CCCC1`, the activity change, negative = inhibition was -0.061% in assay [1]; 0.807% in assay [2]; 0.412% in assay [3]; -2.03% in assay [4]; -4.17% in assay [5].

`O=C1NC2(CCN([S+](=O)([O-])c3ccccc3)C2)Oc2ccccc21` (stereo not given): the activity change, negative = inhibition in assay [1] was -23.6%; in assay [2], -5.5%; in assay [3] it was -3.98%; in assay [4], -12.2%; in assay [5] it was -18.8%.

In the case of `CC(CCc1ccccc1)N1C(=O)c2ccccc2CC1(C)C(=O)NC1CCCCCCC1` (stereo not given), the activity change, negative = inhibition in assay [1] was -1.77%; in assay [2], 4.27%; in assay [3], 2.11%; in assay [4] it was 2.79%; in assay [5], -2.56%.
